# Reference: the supplement of paper PMC4604168 (melanoma cell lines)
# The other results are listed elsewhere or left out. Single values are uncertain, as repeats are few or missing.
# What was measured:
# Assay in all cases: cell count relative to DMSO control; melanoma cells; higher = more viable cells
# Conditions in all cases: library dose: standard library concentration; 72 h
# G361 = test system: G361
# IPC-298 = test system: IPC-298
# IST-MEL1 = test system: IST-MEL1
# LB2518-MEL = test system: LB2518-MEL
# LOXIMVI = test system: LOXIMVI
# MEL-HO = test system: MEL-HO
# MZ2-MEL = test system: MZ2-MEL
# MeWo = test system: MeWo
# RPMI7951 = test system: RPMI7951
# RVH-421 = test system: RVH-421
# 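Also: cells treated in 1,536-well plates, then fixed and DAPI-stained, with nuclei counted from automated high-throughput microscope images.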
Compound,cell count (G361) [%],cell count (IPC-298) [%],cell count (IST-MEL1) [%],cell count (LB2518-MEL) [%],cell count (LOXIMVI) [%],cell count (MEL-HO) [%],cell count (MZ2-MEL) [%],cell count (MeWo) [%],cell count (RPMI7951) [%],cell count (RVH-421) [%]
"Cn1c(=O)n(-c2ccc(C(C)(C)C#N)cc2)c2c3cc(-c4cnc5ccccc5c4)ccc3ncc21 + COc1ccc(COc2ccc(Cc3cnc(N)nc3N)cc2OC)cc1 [GW2580] (first compound 0.02 µM, partner dose 5 µM)",58.5,73,82.7,102,86.6,61,79.4,70.8,77,87.9
"CC(C)C[C@H](NC(=O)[C@H](Cc1ccccc1)NC(=O)c1cnccn1)B(O)O [Bortezomib] + COc1cc2ncnc(Nc3ccc(Oc4ccccc4)cc3)c2cc1OC [SrcI1] (first compound 0.005 µM, partner dose 10 µM)",2.22,11.6,18.5,4.09,162,33,5.9,18.1,13.2,14.7
"COc1ccc(C2=N[C@@H](c3ccc(Cl)cc3)[C@@H](c3ccc(Cl)cc3)N2C(=O)N2CCNC(=O)C2)c(OC(C)C)c1 [Nutlin-3] + COc1ccc(-c2ccc3c(N4CCOCC4)nc(N4C[C@@H](C)O[C@@H](C)C4)nc3n2)cc1CO [KU0063794] (first compound 0.5 µM, partner dose 0.1 µM)",59.1,58.4,95.9,68.9,77.4,78.1,78.7,63.8,79.7,59.6
"Cc1cn(-c2cc(NC(=O)c3ccc(C)c(Nc4nccc(-c5cccnc5)n4)c3)cc(C(F)(F)F)c2)cn1 [nilotinib] + COc1ccc(C2=N[C@@H](c3ccc(Cl)cc3)[C@@H](c3ccc(Cl)cc3)N2C(=O)N2CCNC(=O)C2)c(OC(C)C)c1 [Nutlin-3] (first compound 1 µM, partner dose 0.5 µM)",61,89,98,58.8,77.3,79.2,77.8,100,83,42.3
"COc1ccc(C2=N[C@@H](c3ccc(Cl)cc3)[C@@H](c3ccc(Cl)cc3)N2C(=O)N2CCNC(=O)C2)c(OC(C)C)c1 [Nutlin-3] + O=C(O)c1ccc2c(c1)nc(Nc1cccc(Cl)c1)c1ccncc12 [CX4945] (first compound 0.5 µM, partner dose 2 µM)",46.8,76.2,74.8,73.5,34.2,59.3,70.6,81.7,81.7,78.5
"Cc1cn(-c2cc(NC(=O)c3ccc(C)c(Nc4nccc(-c5cccnc5)n4)c3)cc(C(F)(F)F)c2)cn1 [nilotinib] + C[C@]1(O)C[C@@H](c2nc(-c3ccc4ccc(-c5ccccc5)nc4c3)c3c(N)nccn32)C1 [OSI906] (first compound 1 µM, partner dose 2 µM)",57.9,78.2,82.2,61.5,94,77.3,72,66.7,83.6,71.8
"Cn1c(=O)n(-c2ccc(C(C)(C)C#N)cc2)c2c3cc(-c4cnc5ccccc5c4)ccc3ncc21 + O=C(Nc1ccccc1)c1cc([N+](=O)[O-])ccc1Cl [GW9662] (first compound 0.02 µM, partner dose 10 µM)",67.5,75.9,91.4,90,72.7,74.2,68.3,76.8,77,71.7
"Cc1cn(-c2cc(NC(=O)c3ccc(C)c(Nc4nccc(-c5cccnc5)n4)c3)cc(C(F)(F)F)c2)cn1 [nilotinib] + NC(=O)c1ccc(N(C(N)=O)c2c(F)cccc2F)nc1-c1ccc(F)cc1F [VX702] (first compound 1 µM, partner dose 2 µM)",82.1,89.1,97.6,99.8,190,76.3,85.5,101,97.8,99.2
"Cn1c(=O)n(-c2ccc(C(C)(C)C#N)cc2)c2c3cc(-c4cnc5ccccc5c4)ccc3ncc21 + Oc1nc(-c2ccc(C(F)(F)F)cc2)nc2c1CSCC2 [XAV939] (first compound 0.02 µM, partner dose 10 µM)",63.4,68.4,71.7,88.7,89.1,68,76.8,64.1,58.2,277
"Cn1c(=O)n(-c2ccc(C(C)(C)C#N)cc2)c2c3cc(-c4cnc5ccccc5c4)ccc3ncc21 + Nc1ccn([C@@H]2O[C@H](CO)[C@@H](O)C2(F)F)c(=O)n1 [gemcitabine] (first compound 0.02 µM, partner dose 0.002 µM)",31.5,44.3,43.4,67.9,49.3,59.4,60.8,32.6,59.9,71.3
"Cc1cn(-c2cc(NC(=O)c3ccc(C)c(Nc4nccc(-c5cccnc5)n4)c3)cc(C(F)(F)F)c2)cn1 [nilotinib] + Cn1c(Nc2ccc(C(F)(F)F)cc2)nc2cc(Oc3ccnc(-c4ncc(C(F)(F)F)[nH]4)c3)ccc21 [CHIR265] (first compound 1 µM, partner dose 0.4 µM)",20.4,59.9,81,33.8,89.9,71.8,82.2,74.1,42.1,42.4
